# Several values for one entry are separate records, joined by “and”; a condition that tells them apart may be missing. Equal values may be shown once. The whole screen tested about 110,000 compounds, of which about 230 (0.21%) showed an effect of 50% or more. The list shows a part of the results.
# Target: DPAP1 (Plasmodium falciparum, UniProt Q8IIJ9)
# Assay: primary screen, percent inhibition; read by cleavage of a fluorogenic dipeptide substrate; higher = more effect of the substance
# Parameters: species or system P. falciparum D10 trophozoite lysates; single well
# 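Note: 30 min substrate incubation versus DMSO and 10 µM JCP410 controls.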
# Sequence of DPAP1 (Q8IIJ9 whole entry, looked up): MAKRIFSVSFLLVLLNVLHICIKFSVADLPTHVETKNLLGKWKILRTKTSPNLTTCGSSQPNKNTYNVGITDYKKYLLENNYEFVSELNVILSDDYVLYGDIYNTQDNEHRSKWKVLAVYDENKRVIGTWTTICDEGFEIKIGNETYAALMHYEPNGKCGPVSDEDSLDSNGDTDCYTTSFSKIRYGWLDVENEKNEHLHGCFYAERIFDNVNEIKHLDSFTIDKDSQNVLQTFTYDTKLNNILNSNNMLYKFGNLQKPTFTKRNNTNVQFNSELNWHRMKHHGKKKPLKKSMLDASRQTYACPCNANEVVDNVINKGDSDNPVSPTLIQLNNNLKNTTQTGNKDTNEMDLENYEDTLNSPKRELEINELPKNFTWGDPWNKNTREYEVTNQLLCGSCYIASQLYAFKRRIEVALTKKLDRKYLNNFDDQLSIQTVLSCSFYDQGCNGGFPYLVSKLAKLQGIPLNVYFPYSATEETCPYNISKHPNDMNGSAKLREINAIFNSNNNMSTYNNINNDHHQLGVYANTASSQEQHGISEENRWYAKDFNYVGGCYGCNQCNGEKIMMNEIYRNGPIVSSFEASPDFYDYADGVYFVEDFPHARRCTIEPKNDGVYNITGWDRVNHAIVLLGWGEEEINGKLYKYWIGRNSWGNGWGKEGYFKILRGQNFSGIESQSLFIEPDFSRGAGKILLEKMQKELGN
row,SMILES,% Inhibition @ 10 uM
1,CC(=O)c1cc2c(cc1NC(=O)CCC(=O)O)OCO2,4.3%
2,CCOc1ccc(C(=O)Nc2ccc(S(=O)(=O)Nc3nc(C)cc(C)n3)cc2)cc1,2.66%
3,O=C(Cn1ncn2nc(-c3cccs3)cc2c1=O)NC1CCN(Cc2ccccc2)CC1,-2.85%
4,O=C(NCCO)c1ccc2ccccc2n1,-0.0267%
5,CCCCCCCOc1ccc(-c2noc(-c3ccc(Br)cc3)n2)cc1,-4.31%
6,CCOc1ccccc1CNS(=O)(=O)c1cc(-c2cc(C)no2)ccc1C,-5.31%
7,CCCCC1=NN(C(=O)c2cccnc2)C(O)(C(F)(F)F)C1 (stereo not drawn),-4.84%
8,Cc1cc(S(=O)(=O)N2CC(=O)N(CCc3ccccc3)C(=O)C2)ccc1F,5.01%
9,COc1ccc2[nH]c(C)c(CCNCc3ccc(OC)c(C)c3OC)c2c1,1.35% and 5.99%
10,Cc1ccnc(NS(=O)(=O)c2ccc(NC(=O)c3ccco3)cc2)n1,-0.661%
11,COc1ccc(S(=O)(=O)N(C)CC(=O)N2CCN(c3ccccc3OC)CC2)cc1,2.98%
12,Cc1nsc2ccc3sccc3c12,1.72%
13,CC1(C)CC(=O)C2=C(C1)NC(=O)CC2c1cc(F)ccc1F (stereo not drawn),3.67%
14,CCOc1cc(C2C3=C(O)CC(C)(C)CC3=NC(C)=C2C(=O)Nc2ccccc2C)ccc1O (stereo not drawn),4.7%
15,Cc1cc2ccccc2n1CCNC(=O)C1CCCC1,-8.2%
16,COc1ccc(-c2nnc3s/c(=C\c4sccc4C)c(=O)n23)cc1OC,3.72%
17,O=C1OC(C(=O)Nc2ncc(Cc3cccc(Cl)c3Cl)s2)Cc2ccccc21 (stereo not drawn),-4.85%
18,COc1ccc(-c2cc3nc(C)c(C(=O)O)cn3n2)cc1OC,0.677%
19,C=CCOc1c(Cl)cc(/C=C2/SC(=O)NC2=O)cc1OCC,-3.04%
20,O=C(CN(c1cccc(Cl)c1Cl)S(=O)(=O)c1ccccc1)NCc1ccncc1,-4.86%
21,CCOc1ccc(C(=O)Nc2ccccc2Cl)cc1Cl,2.95%
22,COc1ccccc1CNC(=O)c1cccc2c1C(=O)N(Cc1cccnc1)C2,-2.29%
23,CN(Cc1ccccc1Br)CC(O)c1ccccc1 (stereo not drawn),1.9%
24,COc1cccc(C(=O)N[C@@H](CS(=O)(=O)Cc2ccccc2)C(=O)NCC#N)c1,0.079%
25,COc1cc(OC)cc(C(=O)Nc2ccc(C)c(O)c2)c1,2.48%
26,O=C(NC12CC3CC(CC(C3)C1)C2)OC1CN2CCC1CC2 (stereo not drawn),-2.36%

row,SMILES,% Inhibition @ 10 uM
1,c1cnc(Nc2nc(-c3ccncc3)cs2)nc1,-8.19%
2,CCc1nc(C)cc(CSc2nc3ccccc3[nH]2)c1O,1.29%
3,CCNS(=O)(=O)c1ccc(-c2cc(C(F)(F)F)no2)s1,-2.68%
4,CC(C)CC(C(=O)NCC#N)c1cccc(-c2csc(N3CCN(C(=O)OC(C)(C)C)CC3)n2)c1 (stereo not drawn),0.173%
5,CC(SC(=S)N1CCOCC1)C(=O)O (stereo not drawn),-7.88%
6,Cc1nc2ccc(S(=O)(=O)NCC(=O)N(C)Cc3ccccc3)cc2s1,2.57%
7,Cc1cc(N2CCOCC2)nc(N2CCC(C(=O)O)CC2)n1,3.66%
8,COc1ccc(F)cc1S(=O)(=O)n1nc(C)c(Cl)c1C,-0.0678%
9,Nc1cccc2c(S(=O)(=O)O)cccc12,-1.69%
10,Cn1nc(C(=O)N2CC=C(c3ccccc3)CC2)c2c1-c1ccccc1SC2,12%
11,COC(=O)C1=CN(Cc2ccc(OC)cc2)C=C(C(=O)OC)C1c1ccc(OC)c(O)c1,4.99%
12,COc1ccc(C(=O)Nc2nc(-c3nnn(-c4ccc(F)cc4C)c3C)ns2)cc1,1.8%
13,C1CCCC(NCCN2CCCCC2)CC1,2.85%
14,Cc1noc(/C=C/c2ccco2)c1S(=O)(=O)N1CCC(C(=O)NC(C)c2ccccc2)CC1 (stereo not drawn),3.57%
15,CCOC(=O)C1CCCN(CCC(C)c2ccccc2)C1 (stereo not drawn),-7.34%
16,Cc1ccc(S(=O)(=O)NCC(=O)NC2CCCCCC2)cc1,2.84%
17,CCOC(=O)C1=C(CC)OC(N)=C(C#N)C1c1ccc(Cl)cc1 (stereo not drawn),4.6%
18,Cc1ccccc1CNC(=O)c1ccccc1C(=O)O,-2.09%
19,CC(=O)OC(C)CC#CCN1CCCCC1 (stereo not drawn),-3.26%
20,CCCN1CCC(N2CCOCC2)CC1,2.98%
21,O=C(CCN1C(=O)c2ccccc2Sc2ncccc21)NCc1cccc(Cl)c1,-7.87%
22,CCC(=O)N1c2ccccc2N=C2CC(C)(C)CC(O)=C2C1c1ccc(OC)cc1OC (stereo not drawn),1.01%
23,CC1(C)OC(=O)C(=Cc2cc(Br)c(O)c(Br)c2)C(=O)O1,-4.93%
24,CCOc1ccc(S(=O)(=O)N(C(=O)c2ccccc2)c2ccc3oc(C)c(C(C)=O)c3c2)cc1,-14.4%
25,Cc1ccc2nc(O)c3cc(C(=O)N4CCN(C(=O)c5ccco5)CC4)sc3c2c1,3.32%
26,O=C1N=C(N2CCOCC2)S/C1=C/c1ccc(-c2ccc(F)cc2)o1,-1.04%

row,SMILES,% Inhibition @ 10 uM
1,N=c1c2c(n(Cc3ccc(F)cc3)c3c1CCC3)CCC2,4.01%
2,CC(Oc1cccc(Cl)c1)C(=O)Nc1ccccc1F (stereo not drawn),2.82%
3,Cc1ccc(C)n1-c1nnc(N2CCC(C(=O)NCc3ccco3)CC2)s1,-0.522%
4,O=C1ON=C(c2ccccc2)/C1=C\c1ccc(Cl)cc1Cl,0.685%
5,Cc1cccc(OCC(=O)Nc2c(C)cccc2C)c1,-4.04%
6,CC(C)CCNC(=O)c1cc(S(=O)(=O)N2CCC3(CC2)OCCO3)ccc1F,-5.64%
7,COc1ccc(-n2ncc3c2ncn2nc(COc4cc(C(C)C)ccc4C)nc32)cc1,0.569%
8,CCCS(=O)(=O)Nc1c(NCC)c2ccccc2oc1=O,-1.68%
9,COC(=O)C1=CN(C(C)C)C=C(C(=O)OC)C1c1ccccc1OCc1ccccc1,-3.23%
10,O=C(c1ccc(Br)cc1)N1CCN(c2cccc(Cl)c2)CC1,-10.8%
11,COc1cccc(CN2CCN(Cc3ccc(C)cc3)CC2)c1,-0.622%
12,CCNC(=O)C1CC(=O)N(c2ccc(C)cc2)C1 (stereo not drawn),1.81%
13,COc1ccc(Br)cc1CN1C(=O)c2ccccc2C1C(=O)NCCc1ccccc1 (stereo not drawn),4.63%
14,COc1cc(-c2nc3s/c(=C\c4ccccc4)c(=O)n3n2)cc(OC)c1OC,-4.85%
15,COc1cc(NC(=O)C2CC3CCC2C3)c(OC)cc1Cl (stereo not drawn),-3.04%
16,CC1CCN(CCNC(=O)CN(C)S(=O)(=O)c2cccc3nsnc23)CC1,-1.43%
17,COc1ccc(/C(O)=C/C2=NCC(C)NC2=O)cc1OC (stereo not drawn),2.04%
18,CCCN1CCC(N2CC3(C)CC2CC(C)(C)C3)CC1 (stereo not drawn),0.217%
19,CCOC(=O)c1cnc2cc(F)c(F)cc2c1NC1CC1,-2.79%
20,CCCNc1nc(Cl)nc(NCC(=O)OCC)n1,-1.56%
21,O=C1NC(=S)S/C1=C\c1ccccn1,2.65%
22,Nc1n[nH]c(SCC(=O)c2ccc(O)cc2O)n1,1.63%
23,Cc1ccc(S(=O)Cc2ccc(C(=O)NC3CCCC(C)C3C)o2)cc1 (stereo not drawn),-4.96%
24,Cc1ccc(C(=O)Nc2nc3ccccc3s2)cc1,-5.63% and -7.32%
25,CC1(C(=O)O)CCCC2(C)c3cc(O)ccc3CCC12 (stereo not drawn),-5.15%
26,COC(=O)C(C(=O)OC)C(c1ccccc1)N1CCOCC1 (stereo not drawn),-5.5%

row,SMILES,% Inhibition @ 10 uM
1,COc1ccc(Cl)cc1C(=O)Nc1sc2c(c1C(N)=O)CCCCC2,0.431%
2,O=C(NC(c1ccccc1)c1ccccc1)C1CCCN(c2cnccn2)C1 (stereo not drawn),0.635%
3,CC(c1ccccc1)n1c(CCNC(=O)c2ccco2)nc2ccccc21 (stereo not drawn),-4.95%
4,Cc1cccc(C)c1N1C(=O)C2C(C1=O)C1C=CC2C12CC2 (stereo not drawn),2.01%
5,O=C1CN(C(=O)c2ccco2)CC(=O)N1,-0.436%
6,CCc1ccc(CNC(=O)Cn2ccc3cc(S(=O)(=O)N4CCC(C)CC4)ccc32)cc1,-2.74%
7,C#CCSc1nc2c(c(=O)n1-c1ccc(OC)cc1)C1(CCCC1)Cc1ccccc1-2,1.8%
8,O=C(Nc1sc2c(c1C(=O)NCCc1ccc(O)cc1)CCCC2)c1ccccc1,-4.02%
9,CN1CCN(C(=O)c2cc3nc4c(c(C(F)(F)F)n3n2)CCc2ccccc2-4)CC1,-2.8%
10,C/C(=N\CC1CCNCC1)C1=C(O)CC(C)(C)CC1=O,10.3%
11,CC(=O)c1ccc(N2CCCCC2)c(F)c1,-0.128%
12,O=C(CN1Cc2ccccc2C1=O)NCc1cccs1,-7.33%
13,O=C(/C(=C/c1cccnc1)n1ccnc1)c1ccc(Cl)cc1Cl,-1.71%
14,Cc1ccc(NC(=O)c2sc3ccccc3c2Cl)nc1,-2.56%
15,Cc1nn(CC(=O)NCc2ccc(OC(C)C)cc2)c(=O)c2nn(-c3ccccc3)c(C)c12,2.14%
16,COc1ccc(CNC2CC(C)N(C)CC2C)cc1OC (stereo not drawn),-2.74%
17,COc1ccc(N2CCN(C(=O)CN(c3cccc(C)c3C)S(C)(=O)=O)CC2)cc1,-8.43%
18,Cc1ccsc1/C=c1\sc2nc(-c3ccc(F)cc3)nn2c1=O,-2.98%
19,C=C(C)CN(CC)Cc1ccc([N+](=O)[O-])cc1,-6%
20,CCOC(=O)N1CCC(NC(=O)CSc2c3c(nc4ccc(Cl)cc24)CCCC3)CC1,-8.9%
21,Cc1ccc(Cc2cnc(NC(=O)/C=C/c3ccco3)s2)cc1,10.9%
22,O[C@]12CCCC[C@@H]1[C@@H](c1cccc(Cl)c1Cl)NCC2,-1.8%
23,Oc1nc(SCc2ccccc2F)nc2c1cnn2-c1ccccc1,-3.35%
24,CN(C1CCCCC1)S(=O)(=O)N1CCCC(C(=O)NCc2ccc3c(c2)OCO3)C1 (stereo not drawn),-2.86%

# Source: publication PMC6919601, “Identification of Plasmodium dipeptidyl aminopeptidase allosteric inhibitors by high throughput screening” (PLoS ONE, 2019)
